Laboratory results as given in the supplement of paper PMC7580552.
Counter-ions that a name gives are not always drawn. Some of the results follow. Most values come without repeats; read them as rough.

System: Escherichia coli W3110
Assay: planktonic growth (OD600) relative to untreated control; higher = more growth
Conditions: 10 µM; 20-24 h; 30 °C; TB
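Further: stationary (unshaken) cultures in 96-well plates, started at OD600 0.05 from mid-exponential cells, with compounds supplied from DMSO stocks.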

Row | Structure (SMILES) | planktonic growth [%]
1 | CC(=O)OCC(=O)[C@@]1(O)CC[C@H]2[C@@H]3CCC4=CC(=O)CC[C@]4(C)[C@@]3(F)[C@@H](O)C[C@@]21C [Fludrocortisone acetate] | 110
2 | CCCCN(CCCC)CCCOC(=O)c1ccc(N)cc1 [Butacaine] | 99
3 | COC(=O)Nc1nc2cc(C(=O)c3cccs3)ccc2[nH]1 [Nocodazole] | 94
4 | Cc1ccc(C(=O)c2ccc(CC(=O)O)n2C)cc1 [Tolmetin sodium salt dihydrate] | 90
5 | CC[N+](C)(CC)CCOC(=O)C1c2ccccc2Oc2ccccc21 [Methantheline bromide] | 93
6 | CC(=O)OCC(=O)[C@@]1(O)CC[C@H]2[C@@H]3CCC4=CC(=O)CC[C@]4(C)[C@H]3[C@@H](O)C[C@@]21C [Cortisol acetate] | 92
7 | Cc1ncc(C[n+]2csc(CCO)c2C)c(N)n1 [Thiamine hydrochloride] | 99
8 | CCN[C@H]1CN(CCCOC)S(=O)(=O)c2sc(S(N)(=O)=O)cc21 [Brinzolamide] | 98
9 | NS(=O)(=O)c1cc(C2(O)NC(=O)c3ccccc32)ccc1Cl (centres undefined) [Chlorthalidone] | 93
10 | C=CC(N)CCC(=O)O (centres undefined) [Vigabatrin hydrochloride] | 99
11 | CC[N+](C)(C)c1cccc(O)c1 [Edrophonium chloride] | 109
12 | NCCc1c[nH]cn1 [Histamine dihydrochloride] | 95
13 | OC(Cn1cncn1)(Cn1cncn1)c1ccc(F)cc1F [Fluconazole] | 100
14 | CCCOc1cc(N)ccc1C(=O)OCCN(CC)CC [Propoxycaine hydrochloride] | 95
15 | Cc1cn[nH]c1 [Fomepizole] | 101
16 | C[C@H]1O[C@H](O[C@H]2[C@H](O)[C@@H](O)[C@@H](O[C@H]3[C@H](O)[C@@H](O)C(O)O[C@@H]3CO)O[C@@H]2CO)[C@H](O)[C@@H](O)[C@@H]1N[C@H]1C=C(CO)[C@@H](O)[C@H](O)[C@H]1O (some centres undefined) [Acarbose] | 99
17 | CC(C)(C)NC[C@@H](O)COc1cccc2c1CCCC2=O [(+) -Levobunolol hydrochloride] | 92
18 | CO[C@H]1/C=C/O[C@@]2(C)Oc3c(C)c(O)c4c(O)c(c(/C=N/N5CCN(C6CCCC6)CC5)c(O)c4c3C2=O)NC(=O)/C(C)=C\C=C\[C@H](C)[C@H](O)[C@@H](C)[C@@H](O)[C@@H](C)[C@H](OC(C)=O)[C@@H]1C [Rifapentine] | 9
19 | N=C(N)NC(=N)NCCc1ccccc1 [Phenformin hydrochloride] | 96
20 | CN1CCC(=C2c3ccccc3C=Cc3ccccc32)CC1 [Cyproheptadine hydrochloride] | 26
21 | CC(Cc1cccc(C(F)(F)F)c1)NCCOC(=O)c1ccccc1 (centres undefined) [Benfluorex] | 108
22 | CC(=O)S[C@@H]1CC2=CC(=O)CC[C@]2(C)[C@H]2CC[C@@]3(C)[C@@H](CC[C@@]34CCC(=O)O4)[C@H]12 [Spironolactone] | 101
23 | CCCc1cc(C(N)=S)ccn1 [Prothionamide] | 92
24 | NNCCc1ccccc1 [Phenelzine sulfate] | 106
25 | Clc1ccc(CCC(Cn2ccnc2)Sc2c(Cl)cccc2Cl)cc1 (centres undefined) [Butoconazole nitrate] | 69

Row | Structure (SMILES) | planktonic growth [%]
26 | N#Cc1ccc(C(c2ccc(C#N)cc2)n2cncn2)cc1 [Letrozole] | 91
27 | C[N+]1(C)CCC(OC(=O)C(O)(c2ccccc2)C2CCCC2)C1 (centres undefined) [Glycopyrrolate] | 97
28 | N=C(NCCCCCCNC(=N)NC(=N)Nc1ccc(Cl)cc1)NC(=N)Nc1ccc(Cl)cc1 [Chlorhexidine] | 18
29 | NCc1ccccc1CC(=O)N[C@@H]1C(=O)N2C(C(=O)O)=C(CSc3nnnn3CC(=O)O)CS[C@H]12 [Ceforanide] | 4
30 | CN1CCN(C2=Nc3ccccc3Oc3ccc(Cl)cc32)CC1 [Loxapine succinate] | 102
31 | O=C(O)c1cn(-c2ccc(F)cc2)c2cc(N3CCNCC3)c(F)cc2c1=O [Sarafloxacin] | 24
32 | C[C@@H]1C[C@H]2[C@@H]3C[C@H](F)C4=CC(=O)C=C[C@]4(C)[C@@]3(F)[C@@H](O)C[C@]2(C)[C@@]1(O)C(=O)CO [Flumethasone] | 95
33 | O=C(O)Cc1ccc(-c2ccccc2)cc1 [Felbinac] | 74
34 | COc1cc(C(=O)OCCCN2CCCN(CCCOC(=O)c3cc(OC)c(OC)c(OC)c3)CC2)cc(OC)c1OC [Dilazep dihydrochloride] | 97
35 | O=C1c2c(O)cccc2Cc2cccc(O)c21 [Anthralin] | 110
36 | CCN(CC)CCOC(=O)C1(C2CCCCC2)CCCCC1 [Dicyclomine hydrochloride] | 108
37 | CC(N/C(=N\C#N)Nc1ccncc1)C(C)(C)C (centres undefined) [Pinacidil] | 96
38 | CCCCC(O)c1ccccc1 (centres undefined) [Fenipentol] | 98
39 | CC(=O)Oc1ccccc1C(=O)Nc1ncc([N+](=O)[O-])s1 [Nitazoxanide] | 82
40 | CN(C)CCCN1c2ccccc2Sc2ccc(C(F)(F)F)cc21 [Triflupromazine hydrochloride] | 93
41 | CC[C@H]1OC(=O)[C@H](C)[C@@H](O[C@H]2C[C@@](C)(OC)[C@@H](O)[C@H](C)O2)[C@H](C)[C@@H](O[C@@H]2O[C@H](C)C[C@H](N(C)C)[C@H]2O)[C@](C)(O)C[C@@H](C)C(=O)[C@H](C)[C@@H](O)[C@]1(C)O [Erythromycin] | 45
42 | O=C1c2ccccc2C(=O)C1c1ccccc1 [Phenindione] | 88
43 | Clc1ccc2c(c1)C(N1CCNCC1)=Nc1ccccc1O2 [Amoxapine] | 26
44 | O=C(O)CCc1nc(-c2ccccc2)c(-c2ccccc2)o1 [Oxaprozin] | 92
45 | c1ccc(CC2=NCCN2)cc1 [Tolazoline hydrochloride] | 98
46 | OCCN1CCN(CCCN2c3ccccc3Sc3ccc(C(F)(F)F)cc32)CC1 [Fluphenazine dihydrochloride] | 108
47 | CC(C)(Oc1ccc(CCNC(=O)c2ccc(Cl)cc2)cc1)C(=O)O [Bezafibrate] | 91
48 | CCc1ccc(CCOc2ccc(CC3SC(=O)NC3=O)cc2)nc1 (centres undefined) [Pioglitazone] | 91
49 | Cc1ccc(N(CC2=NCCN2)c2cccc(O)c2)cc1 [Phentolamine hydrochloride] | 93
50 | Cc1c(Cl)cccc1Nc1ccccc1C(=O)O [Tolfenamic acid] | 101

Row | Structure (SMILES) | planktonic growth [%]
51 | CCCSc1ccc2[nH]c(NC(=O)OC)nc2c1 [Albendazole] | 98
52 | CO[C@H]1/C=C/O[C@@]2(C)Oc3c(C)c(O)c4c(O)c(c(/C=N/N5CCN(C)CC5)c(O)c4c3C2=O)NC(=O)/C(C)=C\C=C\[C@H](C)[C@H](O)[C@@H](C)[C@@H](O)[C@@H](C)[C@H](OC(C)=O)[C@@H]1C [Rifampicin] | 28
53 | CC(=O)[C@@]12O[C@](C)(c3ccccc3)O[C@@H]1C[C@H]1[C@@H]3CCC4=CC(=O)CC[C@]4(C)[C@H]3CC[C@@]12C [Algestone acetophenide] | 104
54 | C[C@]12CCC(=O)C=C1CC[C@@H]1[C@@H]2C(=O)C[C@@]2(C)[C@H]1CC[C@]2(O)C(=O)CO [Cortisone] | 97
55 | COC(=O)[C@H](c1ccccc1Cl)N1CCc2sccc2C1 [Clopidogrel] | 106
56 | COCCCC/C(=N\OCCN)c1ccc(C(F)(F)F)cc1 [Fluvoxamine maleate] | 92
57 | CN(C)[C@@H]1C(O)=C(C(N)=O)C(=O)[C@@]2(O)C(O)=C3C(=O)c4c(O)cccc4[C@@](C)(O)[C@H]3C[C@@H]12 [Tetracycline hydrochloride] | 21
58 | C[C@H](N[C@@H](CCc1ccccc1)C(=O)O)C(=O)N1CCC[C@H]1C(=O)O [Enalaprilat dihydrate] | 107
59 | COc1ccc(CC(C)NCC(O)c2ccc(O)c(NC=O)c2)cc1 (centres undefined) [Formoterol fumarate] | 101
60 | CCOC(=O)N1CCC(=C2c3ccc(Cl)cc3CCc3cccnc32)CC1 [Loratadine] | 107
61 | C1N2CN3CN1CN(C2)C3 [Methenamine] | 93
62 | O=C1NCCN1c1ncc([N+](=O)[O-])s1 [Niridazole] | 66
63 | CCCCCN(C)CCC(O)(P(=O)(O)O)P(=O)(O)O [Ibandronate sodium] | 99
64 | C[C@@H](O)[C@H]1C(=O)N2C(C(=O)O)=C(SCCNC=N)C[C@H]12 [Imipenem] | 18
65 | c1ccc2c(c1)CCCC2C1=NCCN1 (centres undefined) [Tetrahydrozoline hydrochloride] | 97
66 | CC(C)(C)C(=O)OCOC(=O)[C@@H]1N2C(=O)[C@@H](/N=C/N3CCCCCC3)[C@H]2SC1(C)C [Pivmecillinam hydrochloride] | 31
67 | CNc1ncnc2c1ncn2[C@@H]1O[C@H](CO)[C@@H](O)[C@H]1O [N6-methyladenosine] | 90
68 | OCC(O)CN1CCN(c2ccccc2)CC1 (racemic) [Dropropizine (R,S)] | 100
69 | CS(=O)(=O)c1ccc([C@@H](O)[C@@H](CF)NC(=O)C(Cl)Cl)cc1 [Florfenicol] | 38
70 | CCN(CC)CCCC(C)Nc1ccnc2cc(Cl)ccc12 (centres undefined) [Chloroquine diphosphate] | 93
71 | Nc1ccc(S(=O)(=O)NC(=O)c2ccccc2)cc1 [Sulfabenzamide] | 79
72 | C=C(CC)C(=O)c1ccc(OCC(=O)O)c(Cl)c1Cl [Ethacrynic acid] | 90
73 | CCCc1ncc(C[n+]2ccccc2C)c(N)n1 [Amprolium hydrochloride] | 110
74 | CC(C(=O)O)c1cccc(Oc2ccccc2)c1 (centres undefined) [Fenoprofen calcium salt dihydrate] | 99
